Measurements published in PubChem BioAssay AID686978 (National Center for Advancing Translational Sciences (NCATS), 2013).
Several values for one entry are separate records, joined by “and”; a condition that tells them apart may be missing. Equal values may be shown once. Screen size: about 420,000 compounds; about 64,000 (15%) were called active. Inconclusive results, whose numbers are uncertain, are shown with a selection of clear calls. The call rests on the fitted dose curve; in most records, active means well fitted inhibition curve with a large enough effect; inconclusive means small, poorly fitted or top-dose-only effect; inactive means flat fitted curve, though single readings scatter. A potency beside an inconclusive call is a rough fit, not a confirmed value. More than one record can exist for a structure, and the calls need not agree.

test: qHTS for Inhibitors of human tyrosyl-DNA phosphodiesterase 1 (TDP1): qHTS in cells in absence of CPT; settings: DT40 Tdp1-/- hTDP1 cells, no CPT, ATP luminescence, 48 h; activity change, negative = growth inhibition: at 46.2 µM (top of the series) unless noted; further: nearly all actives have a fitted effect of over 55% in size
Method in brief: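 Chicken DT40 Tdp1-/- cells complemented with human TDP1, screened without camptothecin (DMSO vehicle only), 400 cells/well. Compounds pin-transferred, cells incubated at 37 °C for at least 48 hr. Growth read as ATP-dependent luminescence (CellTiter-Glo, 30 min at RT).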
On the % scale 0 is the no-effect control and ±100 the full control effect; potency means the concentration at half of the fitted maximal effect; tags describe the fitted curve by direction and shape.

SMILES	Potency	activity change, negative = growth inhibition
Cc1cc(C)cc(-n2ccn(CC(=O)Nc3ccccc3C(F)(F)F)c(=O)c2=O)c1	inactive	
CCN(c1ccccc1)c1nnc(NC(=O)Nc2cccc(Br)c2)s1	inconclusive: 10.3 µM [inhibitor, partial curve, poor fit]	
C=CCN1C(=O)N(c2ccc(Cl)cc2)C(=O)C1CC(=O)Nc1ccc(F)cc1 (stereo unspecified)	inconclusive: 25.9 µM [inhibitor, partial curve]	
CC(=O)c1ccc(NC(=S)Nc2ccc(Br)c(Cl)c2)cc1	inconclusive: 29.1 µM [inhibitor, single point]	
CNC(=O)c1nnsc1S(=O)c1ccc(Cl)cc1 (stereo unspecified)	active: 0.651 µM	
COc1ccc(O)cc1CN1CCN(c2ncc(Cc3ccccc3)cn2)CC1	active: 16.4 µM	
CCN(c1ccc(OC)cc1)S(=O)(=O)c1nnc(NC(=O)c2ccccc2Cl)s1	inactive and active: 16.4 µM	
O=C(Oc1ccccc1C(=S)N1CCCCC1)c1cc([N+](=O)[O-])cc([N+](=O)[O-])c1	inconclusive: 18.4 µM [inhibitor, single point]	
CC1CN(S(=O)(=O)c2cccc(C(=O)OC/C(O)=C(\C#N)c3nc4ccccc4[nH]3)c2)CC(C)O1 (stereo unspecified)	inconclusive: 29.1 µM [inhibitor, single point]	
Cc1cccc(OCC(=O)N(Cc2ccc(C)o2)C2CCS(=O)(=O)C2)c1 (stereo unspecified)	inactive	
CC(=O)C1=C(C)NC(SCC(=O)c2cc(Cl)ccc2Cl)=C(C#N)C1c1ccco1 (stereo unspecified)	inconclusive: 29.1 µM [inhibitor, single point]	
O=c1c(-c2ccccc2)nc2cnc(Oc3ccccc3)nc2n1C1CC1	inconclusive: 23.1 µM [inhibitor, partial curve]	
COCCCNC(=O)CSc1c2c(nc3ccc(Cl)cc13)CCCC2	inconclusive: 29.1 µM [inhibitor, single point] and inconclusive: 29.1 µM [inhibitor, partial curve, poor fit]	
CC(=O)c1sc(NC(=O)CCNC(=O)c2ccco2)nc1-c1ccccc1	inconclusive: 20.6 µM [inhibitor, single point]	
Cc1cc(=O)c2cc(Br)ccc2n1CC(=O)NCc1ccccc1	inconclusive: 23.1 µM [inhibitor, single point]	
Cc1ccc(NC(=O)c2cccc3c2-c2ccccc2C3=O)cc1C	inconclusive: 29.1 µM [inhibitor, single point]	
COc1cccc(NC(=O)CN(C)C(=O)c2cc(-c3ccccc3)nc3ccccc23)c1	inconclusive: 25.9 µM [inhibitor, single point]	
CCN(CC)CCCNc1nc(CN2CCOCC2)nc2sc3c(c12)CCC3	inactive	
O=C(CSc1nnc2c3ccccc3c3ccccc3c2n1)Nc1ccccc1F	inconclusive: 20.6 µM [inhibitor, single point]	
N#C/C(=C\c1cc([N+](=O)[O-])c(N2CCCCC2)cc1N1CCCCC1)c1nn(-c2ccccc2)c(N)c1C#N	inconclusive: 6.51 µM [inhibitor, partial curve]	
Cc1ccc(OCC(=O)Nc2cccc3ccccc23)c([N+](=O)[O-])n1	inconclusive: 16.4 µM [inhibitor, partial curve, poor fit]	
Cc1ccc(CNC(=O)c2ccc(CSCc3ccc(C)cc3)o2)cc1	inconclusive: 23.1 µM [inhibitor, single point]	

SMILES	Potency	activity change, negative = growth inhibition
Cn1c(=O)oc2cc(S(=O)(=O)NCCN3CCN(c4ccccc4F)CC3)ccc21	inconclusive: 23.1 µM [inhibitor, single point]	
CC(O)(c1cccc(F)c1)c1nc(/C=C/c2ccccc2)cs1 (stereo unspecified)	inconclusive: 23.1 µM [inhibitor, single point]	
CNC(=O)/C(C#N)=C/c1ccc(-c2ccc(OC)cc2[N+](=O)[O-])o1	inconclusive: 10.3 µM [inhibitor, partial curve]	
CCCCn1c(NCc2ccccc2O)nc2ccccc21	inconclusive: 14.6 µM [inhibitor, partial curve]	
CCCCCC(=O)N1C[C@@H](n2cc(-c3ccc(F)cc3)nn2)[C@H](O)C[C@@H]1c1ccc(OC)cc1	inconclusive: 29.1 µM [inhibitor, partial curve, poor fit]	
O=c1[nH][nH]c2c1C(c1cccc(C(F)(F)F)c1)OC(CCc1ccccc1)C2 (stereo unspecified)	inconclusive: 29.1 µM [inhibitor, single point]	
Cc1ccc(CNC(=O)c2ccc(-n3c(C)cc4c3CCCC4)cc2)cc1	inconclusive: 29.1 µM [inhibitor, partial curve, poor fit]	
Cc1cc(C(=O)CN(Cc2ccc(F)cc2)S(=O)(=O)c2ccc3c(c2)OCCO3)c(C)n1C	inconclusive: 25.9 µM [inhibitor, single point]	
CCC(C)NC(=O)c1csc2c1CCCCC2 (stereo unspecified)	inactive	
O=C(NC1CC1)c1ccc(S(=O)(=O)NC2CCCCCC2)cc1	inconclusive: 16.4 µM [inhibitor, partial curve]	
O=C(NC1CCN(Cc2ccccc2)CC1)c1ccccc1OCc1ccccc1Cl	inconclusive: 23.1 µM [inhibitor, single point]	
C/C(=N/NC(N)=S)c1ccc(Br)s1	active: 4.61 µM	
CCS(=O)(=O)c1ccc2oc(SCC(=O)N3CCCCC3)nc2c1	inconclusive: 16.4 µM [inhibitor, partial curve]	
O=C(NC1CCCCC1)NC1CC2CCC(C1)N2Cc1nnnn1Cc1ccc2c(c1)OCO2 (stereo unspecified)	inconclusive: 4.61 µM [inhibitor, full curve]	
CC1=C(C(=O)OCc2ccccc2)C(c2ccc([N+](=O)[O-])cc2)NC(=O)N1CCCCCC(=O)O (stereo unspecified)	inactive	
COc1cc(C)c(S(=O)(=O)NCCCn2ccnc2)cc1C	active: 18.4 µM	
COc1cc(C(=O)Nc2ccc(S(=O)(=O)NC(C)(C)C)cc2)cc(OC)c1OC	inconclusive: 13 µM [inhibitor, partial curve]	
CC(C)CNS(=O)(=O)c1cc(C(=O)OCC(=O)c2ccc3c(c2)OCCO3)c(Cl)cc1Cl	inconclusive: 29.1 µM [inhibitor, single point]	
Cc1ccc(C)c(S(=O)(=O)c2cn(Cc3ccccc3)c3cc(F)c(F)cc3c2=O)c1	inconclusive: 29.1 µM [inhibitor, single point]	
CCOC(=O)C1=NNC(C(=O)c2ccc(C)cc2)C1c1ccc(C)cc1 (stereo unspecified)	active: 16.4 µM	
Oc1ccccc1N1CCN(c2ncnc3scc(-c4ccccc4)c23)CC1	active: 23.1 µM	
COc1ccc(N(C(=O)c2snc(C(N)=O)c2N)C(C(=O)NC2CCCCC2)c2ccc(F)cc2)c(OC)c1 (stereo unspecified)	inconclusive: 16.4 µM [inhibitor, single point]	

SMILES	Potency	activity change, negative = growth inhibition
O=C1c2ccccc2C(c2nnnn2-c2ccc3c(c2)OCCO3)N1CCc1ccc(O)cc1 (stereo unspecified)	inconclusive: 16.4 µM [inhibitor, single point]	
O=C(CSc1ccc(Cl)cc1)NC(=O)NCc1ccco1	inconclusive: 25.9 µM [inhibitor, single point]	
O=C(CNC(=O)c1ccccc1)NCCCSc1ccccc1	inconclusive: 16.4 µM [inhibitor, partial curve]	
Cc1[nH]c(=S)[nH]c(=O)c1Cc1c(O)ccc2ccccc12	inconclusive: 29.1 µM [inhibitor, single point]	
CCCn1cnc2c(SCc3ccccc3Cl)nc(N)nc21	inconclusive: 16.4 µM [inhibitor, single point]	
Cc1cccc(NC(=O)C2CCCN(C(=O)NCc3ccccc3)C2)c1C (stereo unspecified)	inactive	
Cc1ccc(C(=O)Nc2nc3ccc(S(C)(=O)=O)cc3s2)s1		inconclusive: -30.2% [inhibitor]
COc1cccc(N(C(=O)c2ccn[nH]2)C2(C(=O)Nc3c(C)cccc3C)CCCCC2)c1	inconclusive: 11.6 µM [inhibitor, partial curve]	
O=C1CCCC2=C1C(c1ccc(O)c(O)c1)Nc1ccc3ccccc3c12 (stereo unspecified)	active: 10.3 µM	
CCOC(=O)c1c(SCC(=O)Nc2nc3ccc(C)cc3s2)nc(=O)[nH]c1C	inactive	
COc1ccc(C2CC(C(F)(F)F)n3nc(C(=O)O)c(Br)c3N2)cc1 (stereo unspecified)	inactive	
CC(C)N(C(=S)NCc1ccccc1)C(C)C	inconclusive: 29.1 µM [inhibitor, single point]	
Cc1cc(C(=O)COC(=O)c2ccc(O)cc2)c(C)n1CCc1ccc(F)cc1	inactive	
COc1ccc(C(=O)N/N=C/c2ccc3cccc(O)c3n2)cc1	active: 5.17 µM	
Cc1cc(C)n(-c2ccc(Cl)c(C(=O)OCC(=O)N3CCCCC3C)n2)n1 (stereo unspecified)	inconclusive: 23.1 µM [inhibitor, partial curve, poor fit]	
COC(=O)c1[nH]c2ccccc2c1NS(=O)(=O)c1ccc(OC)cc1OC	inactive	
O=C(N1CCCCCC1)N1CCN(S(=O)(=O)c2ccccc2)CC1	inactive	
O=C(Nc1ccc(F)cc1F)c1ccc2nc(N3CCOCC3)sc2c1	inconclusive: 29.1 µM [inhibitor, single point]	
Cc1ccc2nc(Cl)c(C3CC(c4cccs4)=NN3S(C)(=O)=O)cc2c1 (stereo unspecified)	inconclusive: 13 µM [inhibitor, single point]	
CN1C(=O)N(C)C2C1N(C)S(=O)(=O)N2C (stereo unspecified)	inactive	
O=C(Cn1cc(SCc2cccc(F)c2)c2ccccc21)N1CCOCC1	inconclusive: 29.1 µM [inhibitor, single point]	
COc1ccc(/C=N/NC(=O)COc2cccc3cccnc23)cc1OC	inconclusive: 11.6 µM [inhibitor, partial curve]	
